According to patent publication US20230257424A1 (NATIONAL RESEARCH COUNCIL OF CANADA, published 2023):

Biological target: T1, naturally produced Aß aggregates (amyloid deposits) in AD-Tg mouse brain (human, UniProt P05067 partial chain)
T1 construct: Target in brain sections or in the living brain; aggregated deposits of unstated composition; also called Aß deposits; endogenous Aß deposits
Assay: immunohistochemistry on AD-transgenic (APP/PS1) mouse brain sections, detection with anti-FC5-HRP
Description: Immunohistochemistry was carried out as described in Example 3. Brain sections from AD-transgenic mice were incubated with FC5(H3)-hFc1X7-ABP (ABP, SEQ ID NO: 36) and the bound fusion molecule was visualized with HRP-conjugated FC5-specific antibody. As a negative control, sections were incubated with either no construct, or FC5-hFc construct without fused ABP. Briefly, Formalin-fixed 40 μm free-floating sections containing cortex and hippocampus from APP/PS1 transgenic mouse were subjected to antigen retrieval in 10 mM sodium citrate buffer (pH 9) at 80° C. for 30 minutes then cooled to room temperature. Sections were rinsed in PBS, treated with 3% H₂O₂ in PBS for 30 minutes to block endogenous peroxidase, then rinsed again. Following a one hour incubation in Dako serum free protein block containing 0.3% triton X-100, sections were incubated with FC5(H3)-hFc1x7-ABP or the molar equivalent of FC5-hFc1x7 in Dako diluent containing 0.3% triton X-100 for 90 minutes at room temperature. After thoroughly rinsing in PBS, the sections were incubated with anti-FC5-HRP in Dako diluent for 60 minutes at room temperature, rinsed again, and then developed using Vector Immpact DAB following the kit directions. […]

T1 sequence (P05067 672-713): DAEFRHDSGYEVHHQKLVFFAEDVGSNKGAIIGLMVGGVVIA

B1: FC5(H3)-hFc1X7 without ABP (Fc fusion)
chain: EVQLVESGGGLVQPGGSLRLSCAASGFKITHYTMGWFRQAPGKGLEFVSRITWGGDNTFYSNSVKGRFTISRDNSKNTVYLQMNSLRAEDTAVYYCAAGSTSTATPLRVDYWGQGTLVTVSSA[skipping human IgG1 Fc with C220S D270G (EU numbers)]
notes: also called FC5-hFc1x7; FC5-hFc construct without fused ABP
- binding result: no binding (tested: molar equivalent of FC5-hFc1x7)
